Results as given in a collection of fitness landscapes (doi:10.1016/j.celrep.2020.107928).
Over roughly 81,000 sequences, “one-hybrid fitness for binding parS DNA” has its median near -0.17; the highest 2% begin near 0.51. Some of the results follow.

B1: Caulobacter ParB omega fusion; a variant is named by its letters at X, in order, B8GW30 (parent)
chain: MESVVVGEPGMSEGRRGLGRGLSALLGEVDAAPAQAPGEQLGGSREAPIEILQRNPDQPRRTFREEDLEDLSNSIREKGVLQPILVRPSPDTAGEYQIVAGERAWRAAQRAGLKTVPIMVRELDDLAVLEIGIIENVQRADLNVLEEALSYKVLMEKFERTQENIAQTIGKSXSHVANXMRLLXLPDEVQSYLVSGELTAXHARAIAAAADPVALAKQIIEGGLSVRETEALARKAPNLSAGKSKGGRPPRVKDTDTQALESDLSSVLGLDVSIDHRGSTGTLTITYATLEQLDDLCNRLTRGI

Variants of: B1
Assay: one-hybrid fitness for binding parS DNA (scaled: cognate 1, non-cognate 0); higher = stronger binding
Conditions: with parS DNA site
In short: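 On M9-minus-histidine containing 0.1 mM IPTG and 5 mM 3-AT, E. coli USO cells with a HIS3 reporter, site 19 bp from the promoter, grew 48 hours at 37°C to select Caulobacter ParB libraries randomised at four specificity codons. Plasmids from before and after were Illumina-sequenced, with three replicate libraries pooled and variants under 10 reads left out. Fitness is the log change in variant-to-wild-type read ratio, rescaled against cognate and non-cognate.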

one-hybrid fitness for binding parS DNA, 0.904:
RVIG

one-hybrid fitness for binding parS DNA, 0.884:
RQAT

one-hybrid fitness for binding parS DNA, 0.998:
RAQS

one-hybrid fitness for binding parS DNA, 0.831:
RVKS

one-hybrid fitness for binding parS DNA, 0.339:
RWNY

one-hybrid fitness for binding parS DNA, 0.425:
RQHN

one-hybrid fitness for binding parS DNA, 0.25:
NECT

one-hybrid fitness for binding parS DNA, 0.201:
RCML

one-hybrid fitness for binding parS DNA, 0.415:
RTTN

one-hybrid fitness for binding parS DNA, 0.381:
RHCN

one-hybrid fitness for binding parS DNA, 0.995:
RLWG

one-hybrid fitness for binding parS DNA, 0.476:
RAEA

one-hybrid fitness for binding parS DNA, 0.812:
RVPS

one-hybrid fitness for binding parS DNA, 0.24:
RARW

one-hybrid fitness for binding parS DNA, ≤ 0.2:
APEM
PPCV
NSHP
QHIY
GAYR
LSPG
EKDG
MYTL
TMSQ
PLHG
CGPC
CKSR
CEAV
TMTP
YGFV
PEKN
SNPK
TPGT
FVPG
KGRW
NHNC
THRH
DGVS
PWDT
DWDT
YAGV
KPRL
HLLS
WTSF
VELW
HNNT
SADA
HLTT
MIRY
VRDY
CHRF
RWVI
QISE
RPMS
ASGG
IRPG
GPVR
NCQG
PWCF
TMML
WPTF
SPVE
NWNA
LTYA
ADTR
RHNF
TVGR
HPNK
IKSS
VEAH
KNVC
SPGW
VHLL
DMKE
GVCA
NAEP
MIHG
NHST
LAGT
SVGP
PLDI
PFHN
ATGL
SSNC
TFWT
DEHG
RVSR
IWQR
RVSE
HLCM
QNKH
GCHN
PIYM
MQIF
MSYH
GECA
WRTL
PTTC
QSSK
HEAN
ELKV
QSFF
LKSD
TVNY
MNDT
GTAC
HYMS
QEME
LAPK
STTV
TINM
YKDV
YSIL
DEMT
PYDC
SGHW
SRAG
AKPL
KINL
LESF
VHYT
TVAA
SYRK
VTSL
LLCC
AFIS
DYLF
NYLA
GWPR
LSVF
DHLC
YDVG
TETN
KACM
GTYS
ILCT
ADQG
KGRG
RVRP
LTTN
APMS
HVAN
IDNS
RIYD
YELC
NCSI
THRF
ATQD
IGPI
KPCN
VGKA
QCGE
QGLI
HQSG
HCMG
QMNN
TAAT
TRLV
EAFS
THVY
QHHK
SQHV
WRFS
AVTK
MACE
KLGV
QIRT
FFVR
SQML
HATA
VNSV
MTMC
NARG
VTRT
NIRR
NEVG
PCPV
TWPL
QHNS
SDKG
DTRG
HSGG
KFQR
LDKC
NDSV
QSMA
RPSI
PTHS
ASQG
WTAL
QNPD
TLKE
RHML
WGRR
PNMT
CPRW
LTET
GYVG
NMGS
QTNE
MVRP
KNTP
VETE
KLFY
NARQ
VAQC
FPSR
QQAT
GDAW
QQGW
HWAR
DNHL
QIYM
RGHL
TVDH
TMEL
KRHL
REKL
PCYY
LYFI
SFMV
LAFT
NNRY
RGED
ARTL
ELET
RPVD
QRSV
PSTR
FYMR
FEGS
AHEV
LVTG
QTSR
ANIL
RWCK
TPIN
QFQS
VYLG
CKQG
RFPD
CEMW
ESIR
YADS
ALET
QFRN
RCGP
TQGE
VPIL
KPDL
HAFV
TNFG
QINV
PDQF
GAYW
DNVT
HFQF
IMIR
GFPG
DFNV
AARQ
LNRE
DQQE
QMAN
WHSE
LASF
CDRP
HGEK
HDMA
NHMS
YKET
VLWY
EAPV
QAYL
AGNI
LNGE
QADV
KQHF
HYRF
LKQN
TTAR
HLYL
RWNK
PSML
EIRS
NENC
VLQI
SASN
PLVV
AGYT
KNAR
TLMT
YMWN
MYNL
QYVF
HDAC
RSCD
VAIA
SVTP
NGAV
GNPG
QQFI
GLVP
HTML
QKLS
LALY
WYWI
